Data from PubChem BioAssay AID504339 (National Center for Advancing Translational Sciences (NCATS), 2011).
The whole screen tested about 390,000 compounds, of which about 17,000 (4.4%) were called active. The shares of active, inactive and inconclusive entries below differ from those in the screen. Calls come from the whole dose curve; as a rule, active = well fitted inhibition curve with a large enough effect; inconclusive = small, poorly fitted or top-dose-only effect; inactive = no such curve, though single readings can be large or run the other way. A potency beside an inconclusive call is a rough fit, not a confirmed value.

biological target: Lysine-specific demethylase 4A (Homo sapiens) (UniProt O75164); experiment: qHTS Assay for Inhibitors of JMJD2A-Tudor Domain; conditions: AlphaScreen JMJD2A-Tudor / H3K4me3 peptide binding; activity change, negative = inhibition: at 114 µM (top of the series); note: nearly all actives have a fitted effect of over 50% in size
Sequence of UniProt O75164 (O75164 whole entry, looked up, the tested form may be a part): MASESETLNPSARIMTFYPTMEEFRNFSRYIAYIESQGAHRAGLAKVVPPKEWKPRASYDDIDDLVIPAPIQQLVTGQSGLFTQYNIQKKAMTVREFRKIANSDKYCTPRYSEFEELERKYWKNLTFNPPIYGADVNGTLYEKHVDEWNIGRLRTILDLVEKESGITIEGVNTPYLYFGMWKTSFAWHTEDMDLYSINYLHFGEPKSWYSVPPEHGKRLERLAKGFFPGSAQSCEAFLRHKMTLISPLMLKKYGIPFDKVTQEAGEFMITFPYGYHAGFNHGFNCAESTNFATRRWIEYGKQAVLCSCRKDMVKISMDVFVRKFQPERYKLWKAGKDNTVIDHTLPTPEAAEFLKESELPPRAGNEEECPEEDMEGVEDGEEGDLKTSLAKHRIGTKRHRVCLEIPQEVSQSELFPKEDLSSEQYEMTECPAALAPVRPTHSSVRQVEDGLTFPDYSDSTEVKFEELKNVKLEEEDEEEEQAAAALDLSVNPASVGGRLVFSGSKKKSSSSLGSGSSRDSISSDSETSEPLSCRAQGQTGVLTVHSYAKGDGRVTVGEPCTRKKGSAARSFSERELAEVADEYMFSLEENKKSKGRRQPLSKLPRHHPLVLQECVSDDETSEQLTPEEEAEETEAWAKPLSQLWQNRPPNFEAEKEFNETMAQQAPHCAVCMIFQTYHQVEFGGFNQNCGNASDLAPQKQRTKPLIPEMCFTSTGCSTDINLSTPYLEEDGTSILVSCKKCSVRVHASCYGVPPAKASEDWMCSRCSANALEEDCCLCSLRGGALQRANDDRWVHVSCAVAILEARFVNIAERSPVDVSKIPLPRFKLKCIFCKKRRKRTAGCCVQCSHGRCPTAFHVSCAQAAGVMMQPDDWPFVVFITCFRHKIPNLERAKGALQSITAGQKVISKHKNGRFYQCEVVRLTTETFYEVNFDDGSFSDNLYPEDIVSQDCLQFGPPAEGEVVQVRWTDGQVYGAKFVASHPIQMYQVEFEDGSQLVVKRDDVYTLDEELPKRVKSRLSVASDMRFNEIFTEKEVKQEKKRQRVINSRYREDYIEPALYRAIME
% is set by controls: 0 for no effect and ±100 for the full control effect; potency is the fitted concentration of half-maximal effect; tags give direction and shape of the fitted curve.

Activity change, negative = inhibition, inactive:
Cc1cccc(-n2c(CNC(=O)c3cccc(F)c3)nnc2SCC(=O)Nc2ccccc2F)c1 -16.2%
O=C(NCCN1CCCC1)C1CCN(S(=O)(=O)N2CCC3(CC2)OCCO3)CC1 -11.6%
O=S(=O)([N-]c1nc2ccccc2nc1-[n+]1ccc(-c2ccncc2)cc1)c1ccccc1 -10.1%
O=C(NNC(=O)c1sccc1-n1cccc1)c1ccc(F)cc1 -13.1%
O=C(N/N=C/c1cccc([N+](=O)[O-])c1)c1cc2ccccc2o1 -33.3%
CN(C)S(=O)(=O)c1ccc(C(=O)NCCSc2c(-c3ccccc3)[nH]c3ccccc23)cc1 -24.6%
CC1CC(C)(C)NC(=S)N1CCC(=O)N1CCN(c2ccccc2)CC1 (configuration not stated) -3.65%
CC(C)=C1C2C=CC1C1C(=O)N(c3ccc4c(c3)OCO4)C(=O)C21 (configuration not stated) -14.1%
COc1ccccc1Cc1nc2ccccc2nc1SCC(=O)N1CCN(c2ccccc2)CC1 -23.4%
COc1ccccc1OCc1nc(C#N)c(NCCCn2ccnc2)o1 -24.1%
COc1ccc(Cl)cc1NC(=O)C1CCN(C(=O)C2CC(=O)N(c3ccc(C)cc3)C2)CC1 (configuration not stated) -10.3%
CCCN1CNc2c(c(=O)[nH]c(=O)n2CCc2ccc(OC)c(OC)c2)C1 -12.2%
CNC(=O)c1ccc(NC(=O)CC2SC(N3CCCC3)=NC2=O)cc1 (configuration not stated) 2.9%
O=C(COC(=O)c1nc(-c2ccccc2)n(-c2cccc(C(F)(F)F)c2)n1)NCc1cccs1 -20.5%
O=C1Nc2ccccc2SC1c1ccccc1Cl (configuration not stated) -9.66%
COc1ccc(C(=O)Nc2cccc(S(=O)(=O)NC3=NCCC3)c2)cc1OC -11.8%
CCN(CC)S(=O)(=O)c1ccc2nc(NC(=O)c3cncc(Br)c3)sc2c1 5.52%
COc1ccc(N2CCN(C(=O)CCN3C(=O)c4ccccc4S3(=O)=O)CC2)cc1 -14.7%
O=C(CSc1ccc(-c2cccs2)nn1)Nc1ccccc1C(F)(F)F -11.4%
Cc1ccc(NC(=O)C2CCCN(C(=O)c3cnn(-c4ccc(F)cc4)c3-n3cccc3)C2)c(Cl)c1 (configuration not stated) -12.1%
C/C(=N\Nc1nccnc1Cl)c1ccc([N+](=O)[O-])cc1 -13.5%
Cc1cc(C)n(-c2ccc(S(=O)(=O)N3CCOCC3)cc2[N+](=O)[O-])n1 -9.86%
CC(C)C1NC(C(=O)O)Cc2c1[nH]c1ccccc21 (configuration not stated) -5.48%
O=C1CC(Sc2nnnn2C2CCCCC2)C(=O)N1c1ccccc1 (configuration not stated) -16.9%

Potency, active:
COc1cc(S(=O)(=O)NCCc2c(C)[nH]c3ccccc23)c(C)cc1C 28.2 µM
O=C(O)c1cccc(N/N=C/C2=C(Cl)c3cc(Cl)ccc3SC2)c1 56.2 µM
COc1ccc(C(=O)/C=C/c2ccc(OC)cc2OC)c(O)c1 17.8 µM
C=CCc1cc(Cl)ccc1OCCOCCNCCOC 10 µM
C[C@@H](O)C1NC(=O)[C@H](CCCCN)NC(=O)c2cc([N+](=O)[O-])cc(I)c2OCC[C@@H](C(N)=O)NC1=O (some centres not stated) 56.2 µM
CN(C)CCNc1oc(-c2ccc(COc3ccc(Cl)cc3)o2)nc1C#N 39.8 µM
COc1ccc(N2CCN(Cc3nnc(-c4cccc(Br)c4)o3)CC2)cc1 79.4 µM
CCOC(=O)c1c(N2C(=O)C3C4C=CC(O4)C3C2=O)sc2c1CCCC2 (configuration not stated) 56.2 µM
O=[N+]([O-])c1ccc(N2CCN(Cc3ccc([N+](=O)[O-])o3)CC2)cc1 20 µM
CC1CN(CCCCOc2ccc(Cl)c3ccccc23)CC(C)O1 (configuration not stated) 11.2 µM
CC1CCCC(N2CCN(C(=O)c3cccc(F)c3)CC2)C1 (configuration not stated) 4.47 µM
CCc1ccccc1N1CC23C=CC(O2)C(C(=O)O)C3C1=O (configuration not stated) 22.4 µM

Potency, inconclusive:
Cc1nnc(C)c2c(C)n(-c3ccc(Cl)c(N)c3)c(C)c12 44.7 µM [inhibitor, partial curve]
O=C(N/N=C/c1cc([N+](=O)[O-])ccc1O)Nc1ccccc1 35.5 µM [inhibitor, partial curve]
CCOC(=O)c1nnn(-c2nonc2-n2cccc2)c1-c1cccc([N+](=O)[O-])c1 11.2 µM [inhibitor, full curve, poor fit]
COc1ccc(N(Cc2cc3cccc(C)c3[nH]c2=O)C(=O)c2cccc(Cl)c2)cc1 35.5 µM [inhibitor, partial curve]
c1ccc(CSc2ccc3nnc(-c4ccccn4)n3n2)cc1 56.2 µM [inhibitor, partial curve]
CN(C)S(=O)(=O)c1cccc(NC(=S)N/N=C/C(c2ccccc2)c2ccccc2)c1 39.8 µM [inhibitor, single point]
CCOC(=O)c1csc(NC(=O)CN2CCN(C)CC2)n1 50.1 µM [inhibitor, partial curve]
O=[N+]([O-])c1cccc(C=Nc2cc3c(cc2Br)OCCO3)c1 15.8 µM [inhibitor, full curve, poor fit]
COc1cccc(-c2sc3ccccc3c2-c2ccc(OCCN3CCCCC3)cc2)c1 22.4 µM [inhibitor, full curve]
CN(C)Cc1ccc(F)cc1Sc1cc(Cl)ccc1Cl 39.8 µM [inhibitor, partial curve]
CN(C)CCCN(C(=O)c1ccc(S(=O)(=O)N2CCCCCC2)cc1)c1nc2ccc(Br)cc2s1 22.4 µM [inhibitor, full curve]
Nc1cccc2cccc([N+](=O)[O-])c12 44.7 µM [inhibitor, full curve, poor fit]
O=C(O)CCC(=O)N1CCC[C@H]1C(=O)O 89.1 µM [inhibitor, single point]
CCOC(=O)/C(C#N)=C/c1cc2ccccc2nc1Cl 56.2 µM [inhibitor, partial curve]
O=C(NC1CCN(C(=O)N2c3ccccc3Sc3ccccc32)CC1)c1ccco1 44.7 µM [inhibitor, partial curve]
Cc1ccc(NC(=O)C2CCN(c3nn4cc(-c5ccc(C)cc5)nc4s3)CC2)cc1 79.4 µM [inhibitor, single point]
Cc1ccc(NC(=O)c2ccccn2)cc1S(=O)(=O)N1CCOCC1 35.5 µM [inhibitor, partial curve]
CCC1OC(c2ccc([N+](=O)[O-])cc2)=Nc2ccccc21 (configuration not stated) 50.1 µM [inhibitor, partial curve]
CCN(CC)S(=O)(=O)c1ccc(NC(=O)c2ccc(Sc3nncn3C)c([N+](=O)[O-])c2)cc1 63.1 µM [inhibitor, single point]
CCN1CCN(c2ncc3c(n2)CC(c2ccccc2O)CC3=O)CC1 (configuration not stated) 89.1 µM [inhibitor, partial curve, poor fit]
COc1cc(OC)c(C(=O)/C=C/c2ccccc2)c(O)c1O 56.2 µM [inhibitor, partial curve]
Cc1cc(C)cc(-n2c(C)cc(/C=N\NC(=O)COc3cccc4cccnc34)c2C)c1 20 µM [inhibitor, full curve]
Cc1cc(C)nc(NC(=NCCc2c[nH]c3ccccc23)NC(=O)Nc2ccc(Cl)cc2)n1 39.8 µM [inhibitor, partial curve]
COc1ccc(CCNC(=S)NC(=O)c2cccc(Cl)c2)cc1OC 28.2 µM [inhibitor, full curve]
CCCCCc1cc(=O)oc2c(C(CCN3CCN(c4ccccc4)CC3)c3ccc4c(c3)OCO4)c(OC)cc(OC)c12 (configuration not stated) 8.91 µM [inhibitor, full curve]
COc1ccc(-c2sc3ccc(OC)cc3c2-c2ccc(OCCN3CCOCC3)cc2)cc1 28.2 µM [inhibitor, partial curve]
CCOc1ccc(/C=C/[N+](=O)[O-])c2ccccc12 28.2 µM [inhibitor, full curve]
Cc1ccc(C(=O)c2cn(Cc3ccc(Cl)cc3)c3nc(C)ccc3c2=O)cc1 50.1 µM [inhibitor, partial curve]
O=C1CCCc2c1nc(-c1ccco1)n2O 79.4 µM [inhibitor, partial curve]
COc1cc(-c2nnc(SCc3cc(=O)oc4cc(O)c(O)cc34)o2)cc(OC)c1OC 12.6 µM [inhibitor, partial curve, poor fit]
N#Cc1c(-c2ccccc2)nc(SCc2ccc([N+](=O)[O-])cc2)[nH]c1=O 25.1 µM [inhibitor, full curve]
Cc1ccc(NC(=O)CN2C(=O)N/C(=C/c3cc(C)n(-c4cccc(C(=O)O)c4)c3C)C2=O)cc1 63.1 µM [inhibitor, partial curve, poor fit]
Cc1ccc(C(=O)c2c3ccc(C(F)(F)F)cc3nn2CCC(N)=O)cc1 89.1 µM [inhibitor, partial curve]
CCOc1ccc(S(=O)(=O)Nc2cc(NS(=O)(=O)c3ccc(OCC)cc3)cc(C(=O)O)c2)cc1 89.1 µM [inhibitor, partial curve]
CC1CCN(c2nc(CN3CCCCC3)nc3scc(-c4ccccc4)c23)CC1 50.1 µM [inhibitor, partial curve]
CCCCN(CC)C(=O)c1nn(C)c2c1CSc1ccccc1-2 50.1 µM [inhibitor, partial curve]
